The whole screen tested about 43,000 compounds, of which about 200 (0.47%) were called active. Inconclusive results (about 12%) are left out. Calls come from the whole dose curve; as a rule, active = well fitted cell-killing curve with a large enough effect; inconclusive = small, poorly fitted or top-dose-only effect, or effect the other way; inactive = flat fitted curve, though single readings scatter. Some of the results follow.
Assay: Cell viability qHTS assay in S16 Pmp22-F2sN cells; note: nearly all actives have a fitted effect of over 65% in size
Settings: S16 Pmp22-F2sN Schwann cells (luciferase reporters placed in the Pmp22 gene) viability, CellTiter-Glo, 24 h; series mostly up to 57.5 µM; activity change, negative = cytotoxicity: at the top concentration
Summary of the method: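 S16 Schwann cells carrying the Pmp22-F2sN reporter, seeded in 1536-well format, were exposed to library compounds for 24 h at 37C. Viability was read as CellTiter-Glo luminescence after 15 min at room temperature.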
% is set by controls: 0 for no effect and ±100 for the full control effect.

Row | Compound | activity change, negative = cytotoxicity
1 | Clc1ccc(-c2csc(=Nc3ccccc3)n2Cc2ccc3c(c2)OCO3)cc1 | inactive: -13.2%
2 | Cc1ccc2nc(COc3ccc(NC(=O)COc4ccccc4F)cc3)cc(=O)n2c1 | inactive: 1.35%
3 | Cc1cccc(OCc2nc(C#N)c(NCc3ccccc3Cl)o2)c1 | inactive: 4.09%
4 | CCOC(=O)C1CCN(C(=O)CSc2n[nH]c(-c3ccccc3)n2)CC1 | inactive: -3.24%
5 | COc1ccc(NC(=O)CSc2nc3ccccc3[nH]2)cc1 | inactive: -7.51%
6 | CC(=O)Nc1nonc1-c1nnc(SCc2ccc(F)cc2)n1C | inactive: -3.96%
7 | COc1ccc(NC(=O)COCc2cc(-c3ccco3)on2)cc1 | inactive: -1.21%
8 | COc1cc2c(=O)c(C(=O)c3ccc(C)c(C)c3)cn(Cc3ccccc3)c2cc1OC | inactive: -17.8%
9 | COc1ccc(-c2cc3nc(C)c(CCC(=O)N4CCN(c5ccccc5)CC4)c(C)n3n2)c(OC)c1 | inactive: 1.08%
10 | Cc1cc(C)c2nc(NC(=O)c3ccc(S(=O)(=O)N4CCCC4)cc3)sc2c1 | inactive: 10.1%
11 | Cc1ccc(C)c(N2CCN(C(=O)Cn3c(=O)c4cccn4c4ccc(F)cc43)CC2)c1 | inactive: -10.2%
12 | Cc1ccc(NC(=O)CSCn2nnc3c(=O)[nH]c(Cc4ccc(F)cc4)nc32)c(C)c1 | inactive: -13.3%
13 | Oc1ccc(-c2nc3ccccn3c2Nc2ccc3c(c2)OCCO3)cc1 | inactive: 1.62%
14 | CCn1cc(S(=O)(=O)c2ccc(OC)cc2)c(=O)c2cc(F)c(N3CCC(C)CC3)cc21 | inactive: -0.592%
15 | CCCN(CCC)CCCNC(=O)C1CCC(CNS(=O)(=O)c2cccc3nsnc23)CC1 (stereo not drawn) | inactive: -1.77%
16 | CCOc1ccc(CNC(=O)C2CCN(S(=O)(=O)N3CCCCC3)CC2)cc1 | inactive: 12.7%
17 | CCCc1nn2c(=O)cc(COC(=O)c3cccc(NC(=O)CCc4ccccc4)c3)nc2s1 | inactive: 0.0808%
18 | NCCCCCc1nnc(SCc2ccc(F)cc2)o1 | inactive: 14.5%
19 | COCCCNC(=O)c1ccc2nc(Cc3ccc(OC)cc3)oc2c1 | inactive: -1.33%
20 | COc1cccc(C(=O)Nc2cc(-c3cn4cccnc4n3)ccc2C)c1OC | inactive: 1.43%
21 | CCOc1ccc(NC(=O)c2sc3nc4c(cc3c2N)CCCCCC4)cc1 | inactive: -0.103%

Row | Compound | activity change, negative = cytotoxicity
22 | O=C(c1cccs1)N(Cc1cccnc1)c1nc2ccc(F)cc2s1 | inactive: -6.12%
23 | Cc1ccc(OCC(=O)Nc2ccccc2C(=O)OCc2cc(=O)n3nc(C4CC4)sc3n2)cc1 | inactive: -1.09%
24 | Cc1nc2ccccn2c(=O)c1NC(=O)c1c(F)cccc1F | inactive: -1.38%
25 | CC1CCN(C(=O)c2c(NC(=O)c3ccccc3F)sc3c2CCC(C(C)(C)C)C3)CC1 (stereo not drawn) | inactive: -2.88%
26 | Cc1ccc(NC(=O)C2CCCN(c3ncnc4c3nc3n4CCCCC3)C2)cc1F (stereo not drawn) | inactive: -12.5%
27 | O=C(Cc1csc2ccccc12)NCc1cccc(Br)c1 | inactive: -2.75%
28 | CN(C)S(=O)(=O)n1cc(/C=C(\NC(=O)c2ccccc2F)C(=O)NCCCn2ccnc2)c2ccccc21 | inactive: 10.4%
29 | Cc1ccccc1CN1CCC(CNc2ncnc3onc(-c4ccc(Cl)cc4)c23)CC1 | inactive: -0.718%
30 | COc1ccc(Nc2c(-c3ccc(Cl)cc3)nc3cnccn23)cc1OC | inactive: -9.83%
31 | CCC12CN3CC(C)(CN(C1)C3c1ccc(O)cc1O)C2=O (stereo not drawn) | inactive: -2.28%
32 | Cc1cc(C)cc(Oc2coc3c(CN4CCN(C)CC4)c(O)ccc3c2=O)c1 | inactive: 1.31%
33 | CCOc1ccc(NC(=O)c2c(NC(=O)c3ccco3)sc3c2CCC(C(C)(C)C)C3)cc1 (stereo not drawn) | inactive: 4.77%
34 | O=C(O)CC(NS(=O)(=O)c1ccc(Cl)s1)c1ccccc1 (stereo not drawn) | inactive: 1.78%
35 | Cc1nc2cccnc2n1-c1cccc(C(=O)NCc2ccc(OC(C)C)cc2)c1 | inactive: -22.2%
36 | O=C(Nc1cccc(C(F)(F)F)c1)C1CCN(c2nnc(-n3cccc3)s2)CC1 | inactive: -4.97%
37 | COc1cc(NS(=O)(=O)c2ccc(NC(=O)C(C)Oc3ccc(Cl)cc3Cl)cc2)nc(OC)n1 (stereo not drawn) | inactive: 3.18%
38 | Cc1ccc(Nc2cc(C)nc3nc(Cc4ccc(Cl)cc4)nn23)cc1 | inactive: -3.73%
39 | COc1cccc(CNC(=O)Cn2c(=O)oc3cc(S(=O)(=O)N4CCCC4)ccc32)c1 | inactive: -12.7%
40 | Cc1ccc(-c2ccc(=O)n(Cc3ccc(F)cc3)n2)cc1 | inactive: -27.5%
41 | CCC(=O)N1CCc2cc(Br)cc(S(=O)(=O)CCC(=O)Nc3cccc(CC)c3)c21 | inactive: -18.5%
42 | COc1cccc(CNC(=O)c2nnn(CC(=O)Nc3cc(Cl)ccc3C)c2N)c1 | inactive: 7.84%

Row | Compound | activity change, negative = cytotoxicity
43 | O=S(=O)(c1ccc(F)cc1)N1CCC(Oc2ccc(-n3cnnn3)cc2)CC1 | inactive: 4.94%
44 | CC(NC(=O)C1(c2cccs2)CCOCC1)c1ccccc1 (stereo not drawn) | inactive: 20%
45 | CCn1cc(C(=O)N2CCN(c3cc(Cl)ccc3C)CC2)c2cc(OC)c(OC)cc2c1=O | inactive: 18.3%
46 | Cc1ccc(CN2CCSc3ccc(C(=O)Nc4ccc(Cl)cc4)cc32)cc1 | inactive: 1.66%
47 | CCOc1ccc(CCNC(=O)CCCc2cc(-c3ccc(OCC)cc3)on2)cc1 | inactive: 5.07%
48 | CCOc1ccc(C(=O)Nc2c(C(=O)c3ccccc3)oc3ccccc23)cc1 | inactive: 7.4%
49 | Cc1nc(N2CCCC2)c2c(C(=O)Nc3ccc(C)c(Cl)c3)c(C)oc2n1 | inactive: 0.621%
50 | CCOc1ccccc1C1N=C(N)Nc2nc3ccccc3n21 (stereo not drawn) | inactive: 7.4%
51 | CCC(CC)C(=O)Nc1cc(-c2cn3cccnc3n2)ccc1OC | inactive: 5.35%
52 | Cc1ccccc1-c1nnc(CN2CCN(c3cc(Cl)ccc3C)CC2)o1 | inactive: -0.402%
53 | CCOC(=O)N1CCC(NC(=O)c2ccc3c(c2)N(Cc2cccc(C)c2)C(=O)c2ccccc2S3(=O)=O)CC1 | inactive: -1.72%
54 | COc1ccc(C(CC(=O)Nc2ccc(C)cn2)N2Cc3ccccc3C2=O)cc1OC (stereo not drawn) | inactive: 8.66%
55 | N#C/C(=C\c1ccc(-c2ccccc2C(=O)O)o1)c1nc2ccccc2[nH]1 | inactive: -11.9%
56 | Cc1cc(-c2ccc(C)c(S(=O)(=O)N3CCCC(C)C3)c2)on1 (stereo not drawn) | inactive: -16.1%
57 | O=C(Cn1nc2c(cc1=O)CCCC2)Nc1ccc(F)cc1F | inactive: -2.46%
58 | COc1ccc(CCNC(=O)c2c(O)nc3cc(C)ccn3c2=O)cc1OC | inactive: 1.86%
59 | COc1ccc(-n2nc(C(=O)NCCc3ccc(Cl)cc3)c3c4ccccc4n(C)c3c2=O)cc1Cl | inactive: 18.1%
60 | O=C(Cn1c(=O)n(Cc2ccco2)c(=O)c2ccc(C(=O)NC3CCCC3)cc21)Nc1ccc(F)cc1 | inactive: 18.5%
61 | Cc1cc(C)n(CC(=O)Nc2ccc(F)c(F)c2)c(=O)c1C#N | inactive: 5.99%
62 | COc1ccc(C)cc1NC(=O)C(=O)NCCc1sc(-c2ccc(Cl)cc2)nc1C | inactive: 1.05%
63 | CCc1noc(-c2ccc(NC(C)c3ccccc3)c([N+](=O)[O-])c2)n1 (stereo not drawn) | inactive: 4.43%
